# Results from ChEMBL document CHEMBL4888484, “Replenishing the malaria drug discovery pipeline: Screening and hit evaluation of the MMV Hit Generation Library 1 (HGL1) against asexual blood stage Plasmodium falciparum ,using a nano luciferase reporter read-out” (2022).
# In all, about 150,000 compounds went through this assay and about 540 (0.36%) showed an effect of 50% or more. The list shows a part of the results.
# Test system: Plasmodium falciparum
# Test: Primary screen in NF54 nanoGlo assay, in single point, at 2uM, 72h; a lower Z score goes with more inhibition
# Format: functional, Erythrocyte
# Details: timepoint 72 hour
SMILES,% Inhibition [%],Z score
Cc1ccc(-c2nc(CN(C)Cc3ccc(-n4cccn4)cc3)c(C)o2)o1,-18,2.35
CCCNC(=O)N1CCCCCCN(C)C(=O)CC1,-19,2.55
C[C@@H](CCc1ccccc1)NC(=O)Cc1csc(NC(=O)CN(C(=O)c2ccc(F)cc2)C2CC2)n1,-3,0.39
Cc1nc(CN[C@@H](C)c2ccc(-c3cccc(C#N)c3)cc2)oc1C,-17,2
Cc1c(Cl)cccc1OC1=NNC(N)=C(N)O1,-3,0.32
CCN(CC)c1ccc(NC(=O)C2(S(C)(=O)=O)CCC2)cn1,-12,1.31
COc1cc(NC(=O)C2CC2c2cnn(C)c2)c(C(=O)N2CCCCC2)cc1OC (stereo not given),-7,0.81
COC(=O)CCN(CC(=O)Nc1nc(C)cs1)CC(C)C,-3,0.35
Cc1ccc(CNC(C)CC(C)O)s1 (stereo not given),-6,0.75
CC(C)(C)c1nnc(NC[C@H](O)COCC2CC2)s1,30,-3.36
CCCc1nc(N[C@H](c2ccccc2)c2nnc(N)s2)c2cnn(C)c2n1,0,0.05
COCCNC(=O)COc1ccc(-n2cccn2)nn1,-8,1.49
Cc1cccc(N(C)C(=O)COCCc2ccccc2)n1,2,-0.31
Cc1cc(C(=O)NC[C@@H](CO)Cc2ccccn2)ccc1F,-10,1.01
CCN1C[C@]2(CCCN(C(=O)c3nc4ccc(C)cn4c3F)C2)CCC1=O,0,0
O=C1Nc2ccccc2S(=O)(=O)N1Cc1cnn(-c2ccccc2)n1,-8,0.89
Cc1c(S(=O)(=O)c2ccccc2)c(NC(=O)[C@@H]2CCCO2)n(C2CCCC2)c1C,-9,1.17
CCCCc1nc([C@@H]2CC(=O)Nc3cc(O)c(OC)cc32)c[nH]1,-20,3.14
O=C(c1conc1C1CC1)N1CCC[C@H](c2nnc3ccccn23)C1,10,-1.51
Cc1ccoc1C(=O)N[C@@H]1CN(c2ncccn2)C[C@H]1CO,-10,1.43
O=C(N1CC(F)C1)C1(S(=O)(=O)c2ccccc2)CCOCC1,-4,0.4
O=C(c1ccc(F)cn1)N1CCCC[C@H]1c1n[nH]c2c1COCC2,-2,0.16

SMILES,% Inhibition [%],Z score
CC(O)CC1CCCCN1Cc1nc(C(C)C)ns1 (stereo not given),-6,1.25
CCC(NC(=O)CC(O)C(C)C)c1ccccc1O (stereo not given),-8,0.86
C[C@@H](CO)NC(=O)C1CCC(F)(F)CC1,0,0.03
COC(=O)Nc1ccc(NC(=O)CC2CCC2)cc1F,-7,0.91
C=CCOc1ccc(CNCC(=O)N2CCCCC2)cc1,2,-0.35
CCOC(=S)c1c(N)oc2c1CCN(Cc1ccccc1)C2,2,-0.23
Cc1cccc(CC(=O)Nc2cnn(-c3cccc(C(=O)N4CCC[C@H]4CO)c3)c2)c1,13,-1.71
C[C@H]1CN(c2nccc(C(F)(F)F)n2)CC[C@]1(O)C1CC1,-21,2.75
Oc1ccccc1-c1cc(-c2ccccc2)c2c(ccc3ccccc32)n1,-5,0.64
N#Cc1ccc(Br)c(F)c1,6,-0.79
NC(=O)CC[C@@H]1NC(=O)[C@@H]2Cc3c([nH]c4ccccc34)CN2C1=O,0,0.02
Cc1ccc(C)c(CC(=O)N2CCCC[C@H]2c2ccnn2C)c1,-7,0.85
CCc1nnc2c(Oc3cccc(NS(=O)(=O)c4ccccc4C)c3)nc3ccccc3n12,4,-0.47
CC(CCc1ccco1)NC1CCN(CC(F)(F)F)C1 (stereo not given),-3,0.33
C[C@@H](c1c(F)cccc1F)S(=O)(=O)CC(=O)N1CCCCCCC1,-4,0.32
COc1ccc2nc(N3CC(C(=O)Nc4ccon4)C3)sc2c1,-6,0.9
O=C1CCCC(=O)N1Cc1ccccc1,3,-0.33
CN(CC(=O)NCCCc1ccco1)c1nnc(N2CCCC2=O)s1,-11,2.07
C[C@H]1CN(Cc2nnc(C(C)(C)C)o2)Cc2c[nH]nc21,-2,0.28
Cc1nc(OCC(=O)NCc2ccccc2)c2c(-c3ccc(F)cc3)noc2n1,-3,0.48
C[C@H]1c2ccsc2CCN1C(=O)C1CCN(C(=O)c2cccs2)CC1,-4,0.5
CN(CC(=O)Nc1nc(CN2CCCCCC2)cs1)C1CC1,6,-0.83

SMILES,% Inhibition [%],Z score
COc1ccc(CNC(=O)c2cc(OC(C)C)c3ccsc3c2)cc1,0,0.06
Cc1ccc(C(=O)N2C[C@@H]3CN(C(=O)C4CCC4)C[C@]3(C(=O)O)C2)c(C)c1,-3,0.33
CC1CCN(C(=O)CCc2nnc3c4cc(-c5ccc(F)cc5)nn4ccn23)CC1,-8,1.09
Cc1cccc(S(=O)(=O)CCCN2CCc3nccc(N)c3C2)c1,-1,0.24
Cc1ccc(CN2CCN(C(=O)NCc3ccco3)[C@@H](C)C2=O)cc1,13,-2.66
CC(=O)Nc1cccc(S(=O)(=O)NCCc2c(C)n3c4c(cccc24)CCC3)c1,7,-0.77
C[C@]1(c2ccc(Cl)cc2)CC(=O)N(Cc2cccnc2C(F)(F)F)C1=O,-4,0.78
Cc1cccc(NC(=O)Cc2csc(NC(=O)[C@@H]3CCC(=O)N3)n2)c1C,-11,1.31
CC(C)OCC(=O)N1CCC[C@@]2(CCC(=O)N(Cc3ccccc3)C2)C1,-6,1.29
C=CCNC(=O)C1Cc2ccccc2N2CCN(CCc3ccccc3)CC12 (stereo not given),-12,1.58
C=CCNC(=O)c1ccc(N(C)C[C@H]2CCOC2)nc1,5,-0.47
CCN(CC)c1ccc(NS(C)(=O)=O)cc1,2,-0.38
Cc1cc(C)c(C)c(Cn2ccnc2)c1C,-2,0.33
Cc1ccc(C(=O)c2ccccc2C(=O)NCCCN2CCCC2=O)cc1C,0,-0.04
CCN(CC)S(=O)(=O)c1ccc2c(c1)nnn2CCNC(=O)OC(C)(C)C,-6,0.82
Cc1ccc(-c2ncc(C(=O)NCc3ccco3)c(N3CCN(Cc4ccccc4)CC3)n2)cc1,-3,0.35
O=C1N(CC2CC2)CCC[C@@]12CCN(CCS(=O)(=O)c1ccccc1)C2,-3,0.4
Cc1cc2ncc(S(C)(=O)=O)c(NC(=O)C3CCCCC3)n2n1,-3,0.48
Fc1ccc(-c2cc(-c3ccc(Cl)cc3)c3c(n2)-c2cc(F)ccc2OC3)cc1,3,-0.55
CC(C)COc1ccc(NC(=O)C2CC2c2cnn(C)c2)cn1 (stereo not given),-4,0.58
CCOc1ccccc1[C@@](N)(C(=O)NCCc1cc(F)cc2c1OCOC2)C(F)(F)F,-11,1.74
Cc1cc(=O)n(CCN2CCOCC2)c2c1c(C)nn2-c1ccccc1,-23,2.71

SMILES,% Inhibition [%],Z score
COC[C@@H]1[C@H](NC(=O)Cc2ccc(O)c(Cl)c2)[C@H]2CCO[C@H]21,-9,0.88
O=C([C@@H]1CC(c2ccccc2)=NO1)N1CCCCC1,-9,1.36
CCCNC(=O)c1ccc(Br)cn1,-18,2.01
COCc1noc(CNc2cc(C(C)C)ncn2)n1,-13,1.15
COc1ccc(-c2cc3cc(OC)c(OC)cc3c(-c3ccccc3Cl)n2)cc1OC,-2,0.23
O=C(O)COc1ccc(CCNC(=O)Cc2ccn(-c3ccccc3)n2)cc1,-2,0.38
Cc1ccc(CNC(=O)c2scc(-c3cccc(F)c3)c2S(=O)(=O)N(C)c2ccccc2)cc1,-9,1.01
COc1ccc(OC)c(CCN2CC(=O)N(c3ccc(C(C)C)cc3)[C@@H]3CS(=O)(=O)C[C@@H]32)c1,-8,1.02
CCOC(=O)c1cc(S(=O)(=O)N2CCC[C@H]2C(=O)Nc2ccc(OC)c(Cl)c2)cn1C,0,0.07
COc1ccc(C[C@@]2(CCC(=O)N(C)Cc3csc(-c4cccs4)n3)CCC(=O)N2)c(F)c1,-3,0.38
CCc1nc(C)sc1CNC(=O)N(C)CCn1ccnc1C,-5,0.86
CC(C)OC1CCN(c2nc3cc(S(N)(=O)=O)ccc3[nH]2)CC1,-4,0.52
CCn1cncc1CNC(=O)c1csc(C)n1,-5,0.93
CCOC(=O)c1cc(C(F)(F)F)n(CC)n1,-5,0.78
CN1CCC2C(CCN2C(=O)Nc2ccc(Cl)c(C(F)(F)F)c2)C1 (stereo not given),42,-6.06
O=C(NCc1ccc2c(c1)OCO2)c1cc2n(n1)CCN(Cc1ccccc1F)C2=O,-1,0.07
CCCCn1nc(NC(=O)c2cc(-c3ccccc3)nc3ncnn23)cc1C,22,-2.5
Cn1ncc2c(N3CCC[C@H]3c3ccccn3)ncnc21,-4,0.7
COc1cccc(CN[C@@H]2CCC[C@@H](C(=O)N(C)Cc3cccnc3)CC(=O)N(C)C2)c1,0,-0.03
